Experimental data from PubChem BioAssay (NCI).
Values joined by “and” are separate entries in the source; they are usually repeats but may differ in a detail not shown here. Equal values may be shown once.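 Step 1: Grow cells in 96-well plates. Step 2: Expose to compound for 48 hours at 5 concentrations. Step 3: Interpolate endpoints linearly; if unreached, use highest concentration. GI50 is the concentration that inhibits growth by half. The concentration for full growth arrest is given as TGI.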

Each compound was assayed on NCI-H322M lung (assay: DTP human tumour cell line panel, 48 h).

Row | Compound | TGI | GI50
1 | Cc1c(C)n(-c2ccccc2)c2nc(S(C)(=O)=O)nc(S(C)(=O)=O)c12 | 32.9 µM | 
2 | [N-]=[N+]=Nc1cc(=O)n2c3c(cccc13)CCC2 | > 100 µM | 
3 | COc1ccc(-n2c(C)cc(-c3ccccc3)c2C)cc1 | > 100 µM | 16.1 µM
4 | O=[N+]([O-])/C(C(Cl)=C(Cl)Cl)=C(/Nc1ccccc1)SCc1ccccc1 | 69.5 µM | 
5 | N#Cc1[nH]c(=S)[nH]c1N | > 100 µM | 
6 | COc1cc2c(OC)cc1CSCc1sc(C)c(c1Br)CSC2 | > 100 µM | 
7 | C1=C\COCc2cc(ccc2OCCN2CCCC2)Nc2nccc(n2)-c2cccc(c2)COC/1 | 5.79 µM | 1.49 µM
8 | Cn1cc(C2=C(c3cccc(Br)c3)C(=O)NC2=O)c2ccccc21 | > 25 µM | > 21.2 µM
9 | N#CC(OC1OC(COC2OC(CO)C(O)C(O)C2O)C(O)C(O)C1O)c1ccccc1 (configuration not stated) | > 225 µM | 
10 | OCc1ccn2c1[C@@H](O)CC2 | > 100 µM | 
11 | CCCO/S(=N\S(=O)(=O)c1ccccc1)c1ccccc1[N+](=O)[O-] (configuration not stated) | > 100 µM | 
12 | CCN1C(=O)N(CC)C2C1NN=c1s/c(=C3\C(=O)N(CC(C)(C)C)c4ccccc43)c(=O)n12 (configuration not stated) | 47.2 µM | 12.5 µM
13 | CN(CCO)c1ccc(N2Cc3ccccc3OC3=C2C(=O)c2c(O)ccc(O)c2C3=O)cn1 | 2.44 µM | 1.06 µM
14 | CCCCCOc1ccc(/C=N/Nc2cc(C)nc3ccc(Br)cc23)cc1 | 3.16 µM | 1.74 µM
15 | CC[C@H]1CN2CCc3cc(OC)c(OC)cc3[C@@H]2C[C@@H]1C[C@H]1NCCc2c1[nH]c1ccc(O)cc21 | 0.123 µM and 0.445 µM and 1.03 µM | 0.0262 µM and 0.051 µM
16 | Cc1nc2sc3c(c2c(=O)[nH]1)CCCC3 | > 100 µM | 
17 | CC1C[C@]2(C)C(=NCCN)Nc3ccccc3[C@@H]2N(C)c2ccccc21 (some centres not stated) | 23 µM | 
18 | C/C(=N/NC(=S)Nc1ccc(Cl)cc1)c1cccc(/C(C)=N\NC(=S)Nc2ccc(Cl)cc2)n1 | 7.36 µM | 
19 | N=C(N)c1ccc2nc(-c3cc(CC(=O)N[C@@H](CC(=O)O)C(=O)O)cc(-c4cc(S(N)(=O)=O)ccc4O)c3O)[nH]c2c1 | > 100 µM | > 100 µM
20 | O=C(Nc1ccc(-n2ccc3c(NC(=O)c4ccccc4)nccc32)cc1)Nc1ccc(Cl)c(Cl)c1 | 6.01 µM | 2.13 µM
21 | COc1ccc(CC2c3cc(OC)c(OC)cc3CC[N+]2(C)C)cc1OC (configuration not stated) | > 100 µM | 
22 | COc1ccc(OC)c(C(Cc2ccnc3ccccc23)Cc2ccnc3ccccc23)c1 | > 10 µM | 
23 | N#CC(C(=O)C(=O)Nc1ccc(Cl)cc1)c1ccccc1 (configuration not stated) | > 100 µM | 
24 | Nc1nc(NCC2(CO)CC2)cc(=O)[nH]1 | > 100 µM | 
25 | S=C1SSC2N=CC=CC12 (configuration not stated) | > 100 µM | 

Row | Compound | TGI | GI50
26 | COc1cc(O)c(C(=O)/C=C/c2ccc(O)cc2)cc1Oc1ccc(/C=C/C(=O)c2ccc(O)cc2O)cc1 | 21.4 µM | 
27 | CC(C)CC(NC(=O)C(CI)Cc1ccccc1)C(=O)Nc1ccccc1 (configuration not stated) | > 100 µM | 
28 | CC(C)(S)C(N)C(=O)O (configuration not stated) | 4830 µM and > 100 µM | 1360 µM
29 | CN1C(=O)c2ccccc2OC12C=Cc1ccc(O)cc1O2 (configuration not stated) | > 100 µM | 
30 | S=c1[nH]c(=S)c2nnn(-c3ccccc3)c2[nH]1 | > 100 µM | 
31 | Cc1c(O)c(OC2OC(CO)C(O)C(O)C2O)cc2c1CC[C@@H]1C2(C)C(=O)C[C@]2(C)[C@@H]([C@@](C)(O)C(=O)CCC(C)(C)O)[C@H](O)C[C@@]12C (some centres not stated) | > 100 µM | 
32 | Cc1ccc(S(=O)(=O)c2ccc(N)cc2)cc1 | > 100 µM | 
33 | Cc1nc2ccc(NC(=S)Nc3ccccc3)cc2c(=O)n1-c1ccccc1 | > 100 µM | 
34 | O=P1(c2ccccc2)CCCCC1 | > 100 µM | 
35 | COc1ccc(/C(Cl)=C(\C=O)c2ccc(OC)c(OC)c2)cc1 | > 100 µM | 
36 | CCOC(=O)c1nc2ccc(C(F)(F)F)cc2[nH]c1=O | > 100 µM | 
37 | CC(C)(C)OC(=O)NC(Cc1ccc(OC(C)(C)C)cc1)C(=O)N[C@H]1CCC[C@H]1C(=O)NC(Cc1ccccc1)C(=O)N1CCCC1C(N)=O (some centres not stated) | > 100 µM | 
38 | Cc1cc(C)c(C[C@H]2COC(=O)[C@]2(O)Cc2c(C)cc(C)cc2C)c(C)c1 | 35.4 µM | 
39 | Cc1cc(NS(=O)(=O)c2ccc(Nc3c4ccccc4nc4c(C(=O)N5CCN(CCO)CC5)ccc(Cl)c34)cc2)no1 | > 100 µM | 
40 | CCCN1CN(C(C(=O)N[C@@H]2C(=O)N3C2SC(C)(C)C3C(=O)O)c2ccc(O)cc2)CSC1=S (some centres not stated) | > 100 µM | 
41 | COC(=O)C1=C(C(=O)Nc2cccnc2Cl)N(c2ccc(OC)cc2[N+](=O)[O-])C(c2ccc(C)cc2)=CC1c1ccc(OC)cc1OC (configuration not stated) | > 70.2 µM | 
42 | c1ccc2c(c1)c1c(c3ccccc32)CN2CCCC2C1 (configuration not stated) | 62.4 µM | 
43 | CC1=NC(=Cc2cc(Br)cc(Br)c2)C(=O)N1n1c(-c2ccccc2)nc2ccccc2c1=O | > 100 µM | 
44 | COc1ccc(-c2nc(-c3cc4c(ccc5ccccc54)oc3=O)cs2)cc1 | > 100 µM | 
45 | CSc1ccc2c(c1)C(=O)c1c-2n(CCCBr)c(=O)c2cc([N+](=O)[O-])ccc12 | > 100 µM | 31.4 µM
46 | O=C(O)c1nc2ccc(C(F)(F)F)cc2nc1NCc1ccc(F)cc1 | 84.6 µM | 
47 | c1ccc(NN=C(c2ccccn2)c2ccccn2)nc1 | > 100 µM | 
48 | CNS(=O)(=O)NNS(=O)(=O)c1ccc(Br)cc1 | > 100 µM | 
49 | COc1c(OC(C)=O)c(OC(C)=O)cc2c1-c1ccc(SC)c(=O)cc1C(NC(C)=O)CC2 (configuration not stated) | > 34.9 µM | 
50 | COc1cc(N(CCC#N)CCC#N)ccc1/C(N=Nc1ccccc1C)=N\NC(=O)c1ccc(C)cc1 | > 100 µM | 

Row | Compound | TGI | GI50
51 | CCCCCC(=O)CCCCCCCC(O)CC(=O)OCC (configuration not stated) | > 100 µM | 
52 | CC1COC(C)(C)P(=O)(c2ccccc2)C1 (configuration not stated) | > 100 µM | 
53 | CCC(C)C1NC(=O)C(NC(=O)c2c3[nH]c4c(C(=O)NC5C(=O)NC(C(C)CC)C(=O)N6CCCC6C(=O)N(C)CC(=O)N(C)C(C(C)C)C(=O)OC5C)ccc(C)c4oc-3c(C)c(=O)c2=O)C(C)OC(=O)C(C(C)C)N(C)C(=O)CN(C)C(=O)C2CCCN2C1=O (configuration not stated) | 69.4 µM | 
54 | COc1c[c]([Hg][O]C(C)=O)c(OC)c(NC(=O)CC(C)=O)[c]1[Hg][O]C(C)=O | 30.8 µM | 17.1 µM
55 | O=S(=O)(c1ccccc1)C1CN2OC1(S(=O)(=O)c1ccccc1)CC2c1ccc(Br)cc1 (configuration not stated) | > 100 µM | 
56 | CC(=O)O/C(=C1\C[C@H]2[C@@H]3CC=C4C[C@@H](OC(C)=O)CC[C@]4(C)[C@H]3CC[C@]2(C)C1=O)C(F)(F)F | 46.2 µM | 
57 | CCn1sc2ccccc2c1=O | > 54.1 µM | 
58 | COc1ccc2[nH]c3c(c2c1)CC(=S)N1CCCC(CC3=O)C1 (configuration not stated) | > 100 µM | 
59 | C=C1C(=O)OC2CC(C)C3(O)CCC(=O)C3(C)CC12 (configuration not stated) | > 100 µM | 
60 | CN(C)CC1CCC/C(=C\c2ccc(Cl)cc2)C1=O (configuration not stated) | 28.5 µM | 
61 | CC(CO)CCNc1ncnc2c1ncn2CCC(=O)OC(C)(C)C (configuration not stated) | > 100 µM | 
62 | CCOC(=O)/C=C(/C)Sc1cc(O)c2ccccc2c1O | 13 µM | 3.04 µM
63 | C#COc1cccc(Nc2c(C#N)cnc3ncc(NC(=O)CCl)cc23)c1 | > 62.5 µM | > 62.5 µM
64 | CCN(Cc1ccccc1C)c1ccc(CO)c(Cl)c1 | 27.6 µM | 12.7 µM
65 | Cc1c(/C=N/NC(=O)c2ccc(Cl)cc2)c(=O)n(-c2ccccc2)n1C | > 100 µM | 
66 | Ic1cccc(/C=C/CN2CCN(CCOC(c3ccccc3)c3ccccc3)CC2)c1 | 57.2 µM | 
67 | COc1cc2c(c(OC)c1OC)-c1ncc3cc4c(cc3c1C2)OCO4 | 59.9 µM | 17.4 µM
68 | CCC(=O)O[C@H]1CC[C@H]2[C@@H]3CCC4=C/C(=N/OC(=O)c5cccc6c(=O)c7ccccc7[nH]c56)CC[C@]4(C)[C@H]3CC[C@]12C | > 100 µM | 
69 | CC1(C)CC(=O)C(C=NC(=O)c2ccncc2)=C(O)C1 | > 100 µM | 
70 | COc1ccc(C2OC(N)=C(C#N)C3=C2CCCC3C)cc1OC (configuration not stated) | > 100 µM | 
71 | CCOc1ccncc1[N+](=O)[O-] | > 100 µM | 
72 | Cc1cc(S(=O)(=O)O)c(NC(=O)C(=O)Cc2cc(=O)oc3cc(O)ccc23)cc1Cl | > 100 µM | 
73 | CC(=O)O[C@H]1CCC2[C@@H]3CCC4Nc5oncc5C[C@]4(C)C3CC[C@@]21C (some centres not stated) | > 10 µM | 
74 | COc1cc(OC)c(/C=C/c2c3ccccc3cc[n+]2C)c(OC)c1 | 29 µM | 3.48 µM
75 | COC(=O)[C@H]1C=C[C@@H](C)n2c(=O)c3cc4ccccc4cc3c(=O)n21 | > 100 µM | 

Row | Compound | TGI | GI50
76 | O=C1/C(=C/c2cccc(Br)c2)Cc2ccccc21 | > 100 µM | 
77 | Cc1ccc(C)c(N=C2NC(=O)C(CC(=O)Nc3ccc(Cl)cc3Cl)S2)c1 (configuration not stated) | > 100 µM | 
78 | CN1CCc2c(sc3ncn(C)c(=N)c23)C1 | > 100 µM | 
79 | COc1ccc(-c2csc(Cc3nc4ccccc4c(=O)n3-c3ccc(Cl)cc3)n2)cc1 | 72.9 µM | 
80 | NC(=O)OCCn1cc(-c2nc(-c3c[nH]c4ncccc34)cs2)c2ccccc21 | 10.7 µM | 1.95 µM
81 | O=C(N[C@@H](c1ccccc1)[C@@H](O)C(=O)OCc1ccc([N+](=O)[O-])cc1)c1ccccc1 | > 100 µM | 
82 | O=C1C=CC(=O)c2c1ccc1c3ccccc3n(-c3cccc([N+](=O)[O-])c3)c21 | > 10 µM | 
83 | CC1=C(C(=O)Nc2ccc(Cl)c(Cl)c2)C(c2cccc(Oc3ccccc3)c2)NC(=O)N1 (configuration not stated) | 19 µM | 8.1 µM
84 | O=C(CSC1CCc2ccccc21)N/N=C/c1ccccc1O (configuration not stated) | > 100 µM | 4.25 µM
85 | O=c1oc2ccccc2cc1-c1cn2ccccc2n1 | 23.1 µM | 
86 | Fc1ccc(C(=C2CCN(CCc3ccc4[nH]c(=S)[nH]c4c3)CC2)c2ccc(F)cc2)cc1 | 24.5 µM | 
87 | Cc1cccc(C)c1NC(=O)C(=O)C(C(=O)c1ccccc1-c1ccccc1)C1OC(=O)c2ccccc21 (configuration not stated) | 73.1 µM | 
88 | Cc1cc(C)c(NC(=O)c2sc3nc4c(cc3c2N)CN(Cc2ccccc2)CC4)c(C)c1 | > 100 µM | 8.65 µM
89 | O=C(NCCCl)N(O)C(=O)Nc1ccccc1 | > 100 µM | 
90 | CN1C(=O)CSC1=S | > 100 µM | 
91 | O=C(/C=C/c1ccccc1Cl)NC1C=Nc2ccc([N+](=O)[O-])cc2NC1 (configuration not stated) | > 100 µM | 
92 | COc1ccc(CCNC(=O)c2ccc(NC3=C(Cl)C(=O)N(Cc4ccccc4)C3=O)cc2)cc1OC | 58.5 µM | 22.9 µM
93 | OCCCNc1nccc(-c2c(-c3ccc(F)cc3)nn3cc(C(F)(F)F)ccc23)n1 | > 25 µM | > 25 µM
94 | CC(C)N(C(=O)C12C3C4C1(I)C1C2C3(I)C41C(=O)N(C(C)C)C(C)C)C(C)C (configuration not stated) | > 100 µM | 
95 | CNC(=S)N=Nc1c(O)n(CN2CCOCC2)c2ccc([N+](=O)[O-])cc12 | 46.8 µM | 
96 | CC(C)C(=O)Nc1nc2c(ncn2C2OC(CO)C(O)C2O)c(=O)[nH]1 (configuration not stated) | > 100 µM | 
97 | Cc1ccc(-c2n[nH]c(=O)n2/N=C\c2ccc([N+](=O)[O-])cc2)cc1 | > 100 µM | 
98 | O=C(c1ccccc1)c1c(-c2ccccc2)n(-c2ccccc2)[nH]c(=O)c1=O | > 100 µM | 
99 | CCC1CCc2c(c(=O)oc3c2cc(OC)c2cccc(OC)c23)C1 (configuration not stated) | > 100 µM | 
